Source: the supplement of paper PMC3334620
The full ranking holds about 33,000 sequences; the median of “E-score (-0.5 to 0.5)” is about -0.016, and the highest 2% start at about 0.32. The list shows a part of the results.

biological target: T1, Stp1 (UniProt B3LFK1); experiment: PBM E-score (8-mer binding enrichment) (E-score (-0.5 to 0.5)); higher = stronger / more preferred TF binding; most listed sequences are background and not binding sites; details: protein concentration: 200 nM; construct: GST-full length
T1 sequence: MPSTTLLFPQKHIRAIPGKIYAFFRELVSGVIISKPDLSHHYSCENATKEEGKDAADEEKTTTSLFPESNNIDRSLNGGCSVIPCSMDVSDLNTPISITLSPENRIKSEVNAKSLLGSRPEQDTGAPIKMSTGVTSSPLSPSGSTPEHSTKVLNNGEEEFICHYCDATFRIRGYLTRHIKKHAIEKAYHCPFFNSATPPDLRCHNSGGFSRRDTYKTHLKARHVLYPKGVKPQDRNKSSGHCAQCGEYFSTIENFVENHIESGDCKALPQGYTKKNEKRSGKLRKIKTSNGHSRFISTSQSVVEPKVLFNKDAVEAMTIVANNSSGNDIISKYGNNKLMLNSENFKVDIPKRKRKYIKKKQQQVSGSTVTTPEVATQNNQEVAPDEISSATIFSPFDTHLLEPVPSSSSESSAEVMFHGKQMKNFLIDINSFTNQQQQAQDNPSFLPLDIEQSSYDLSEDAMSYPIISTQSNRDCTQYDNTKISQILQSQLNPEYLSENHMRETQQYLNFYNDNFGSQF
How it was run: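 Detection of bound protein used fluorescent anti-GST, with scans normalised by masliner. The proteins were GST-tagged yeast transcription factors applied at about 100-200 nM to universal all-10-mer Agilent arrays made double-stranded by primer extension. Each ungapped eight-base word, pooled with its reverse complement, was scored with an E-score from the Universal PBM Analysis Suite.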

| Sequence | PBM E-score |
| --- | --- |
| CCATGGAA | -0.0518 |
| GTGTGGAA | 0.032 |
| CTCTGTTA | -0.0478 |
| ATTGGAAC | 0.115 |
| AATGACCT | -0.256 |
| AGTTACGC | -0.0536 |
| GCCACGAC | -0.0685 |
| TAACTGTA | 0.0377 |
| AGTAGAGG | -0.288 |
| ATAGACGG | 0.175 |
| AGCGAGAG | -0.0779 |
| CTGACCAG | -0.136 |
| GAAACATC | -0.184 |
| GAATGCCC | 0.13 |
| ATGTGGAG | 0.0244 |
| CCAGATTC | -0.253 |
| CACGCCCG | -0.0702 |
| TCGCAGCA | 0.0185 |
| AAAGATAT | 0.133 |
| ACCTAATC | 0.0444 |
| CATAAGGC | 0.344 |
| GGAAGCAA | -0.0555 |
| GACACGGC | 0.479 |
| ATCATTTA | 0.13 |
| ATTGCGCG | 0.32 |

| Sequence | PBM E-score |
| --- | --- |
| AGGTGCTG | -0.106 |
| AAAATTAG | 0.0472 |
| AACGAGAC | -0.0773 |
| CATACAAA | 0.222 |
| CACTCGGG | -0.174 |
| CCCCAGCG | -0.103 |
| TACCCCAA | -0.0592 |
| AAACCCTG | -0.0886 |
| CTCACGTA | -0.134 |
| ACATACAA | 0.148 |
| GACCTGCA | -0.235 |
| AAGTTTAA | 0.0956 |
| CGAACGTC | -0.0853 |
| AAAGGGTT | -0.177 |
| AATACAGT | 0.0336 |
| CTCCCAAG | -0.204 |
| GTCCTTCA | -0.228 |
| ATGCCTGA | -0.108 |
| ATTAGCCC | -0.0336 |
| GTGATACA | 0.0512 |
| TCGCATAA | 0.00879 |
| CATCCGTC | -0.055 |
| CGACAATA | 0.197 |
| AGATTGCC | 0.0901 |
| CAAATCCA | 0.0898 |

| Sequence | PBM E-score |
| --- | --- |
| CGCCACCG | 0.045 |
| AGTGTGAG | -0.0833 |
| CTGTACGA | 0.00025 |
| AAACTCTC | 0.0198 |
| CGAACCCA | -0.133 |
| CATGGTTA | 0.105 |
| AAGGACTT | -0.285 |
| AGCCTCAT | 0.0519 |
| ATCTCATC | -0.0678 |
| AGAGCGGA | 0.026 |
| AATCACCT | 0.0461 |
| AAGGGTCT | -0.255 |
| CTTGGATA | 0.0427 |
| ACCAGTAG | 0.0159 |
| ATTGGCGA | 0.041 |
| GTTTAGGA | -0.255 |
| ACCCTCTC | -0.32 |
| CACCATCG | -0.146 |
| GACTGTAC | -0.105 |
| CTCGCAAA | -0.169 |
| GTCCCTAA | -0.0973 |
| GCACAAAA | 0.293 |
| ACAATGCC | 0.2 |
| ATAAAGGG | 0.0416 |
| GCCTTGCA | 0.33 |

| Sequence | PBM E-score |
| --- | --- |
| AGCATCTC | -0.18 |
| CCTCTAAA | -0.143 |
| AGGACGTC | -0.054 |
| AGCAGAGC | -0.0431 |
| CCTGATCA | -0.219 |
| CGTCATCC | -0.11 |
| AAAGGATC | -0.00085 |
| AACGATAA | -0.184 |
| CATTACGA | 0.0209 |
| ATAACCCG | -0.281 |
| CCGATTCG | 0.205 |
| ACGGTCAA | 0.0586 |
| CCTGGGAA | -0.108 |
| ACGGACTG | -0.0189 |
| CGCCTGCA | -0.0325 |
| CGAACTAA | 0.0581 |
| AAAGTTAC | 0.0425 |
| AGGGGCAT | -0.094 |
| CGGACCAC | -0.00311 |
| CATTTGTA | 0.159 |
| AGACTGAG | -0.0241 |
| GGTATTAA | 0.139 |
| CGACCATA | -0.108 |
| ATACGTCG | -0.127 |
| AGCCCGCT | -0.285 |

| Sequence | PBM E-score |
| --- | --- |
| TACAAATA | 0.125 |
| AAAGACAT | -0.0383 |
| GCGATAAC | 0.0294 |
| CATGTGAG | -0.141 |
| GGAAATCC | -0.0189 |
| GACGACGA | -0.0515 |
| AAAAACCA | 0.165 |
| CAGTTAAA | 0.107 |
| AGCCCTCG | -0.217 |
| TTCTTAAA | -0.125 |
| AACAGATG | -0.0496 |
| CAGAAGGA | -0.116 |
| GCGCGACC | 0.122 |
| GTCCATGA | -0.243 |
| AACCTAAG | -0.0196 |
| CCGTATGC | 0.331 |
| CGCGAGAA | -0.128 |
| CAGGAAAA | 0.136 |
| CACTGTCA | -0.0262 |
| CTCGCCTA | 0.102 |
| AACTAGGG | -0.198 |
| ACAAAAAA | 0.207 |
| CCCGCAAA | 0.108 |
| AAACAAAA | 0.108 |
| TACCTAGA | -0.22 |

| Sequence | PBM E-score |
| --- | --- |
| CAGAAGCC | 0.0659 |
| TATCGCAA | -0.0107 |
| GAGTGAAC | -0.0633 |
| CGCCGCGC | 0.487 |
| AGGGACGG | 0.0564 |
| AATGTGTA | 0.0587 |
| GGAGACAC | -0.163 |
| CACTATAC | 0.0177 |
| ATCGTAAT | 0.0988 |
| AGCTAATG | -0.215 |
| CCATTCAA | 0.172 |
| CGAGACAA | -0.0952 |
| ATACCTGC | -0.186 |
| CGCTACAC | 0.14 |
| AGCTCACG | -0.006 |
| ACAAAGCA | 0.24 |
| ACTTAACA | -0.064 |
| ATGACGTA | -0.0285 |
| ATGGTTGC | -0.177 |
| CAAGAACG | 0.119 |
| GATGTGCA | -0.192 |
| ATGTTTTC | 0.128 |
| ATCAAATA | 0.0256 |
| ATTCTAGG | -0.0039 |
| CTACAGAC | -0.142 |

| Sequence | PBM E-score |
| --- | --- |
| AGGAACAG | -0.346 |
| GCAGCGAA | 0.0703 |
| CCTTGTTC | -0.0796 |
| CACCCAGA | -0.257 |
| ATAGTGAC | -0.0557 |
| CATTGGCG | -0.071 |
| ACCCAGCA | -0.115 |
| ATCATCTA | -0.00058 |
| ATCCTAAT | 0.0266 |
| GCCGACGC | 0.0701 |
| CAAAGATC | 0.0716 |
| AATGTCAG | -0.192 |
| ACTCTCTA | -0.161 |
| CGGAGTGA | -0.0778 |
| AGCCAGCG | -0.229 |
| ACTCTCCT | -0.328 |
| CCTAGGCC | -0.159 |
| AGATTCAG | -0.135 |
| CAAAGGGG | -0.262 |
| AGTTTACC | -0.00036 |
| ACAGCATA | 0.178 |
| CAGATGAA | -0.0963 |
